# From PMC12820563
# This is one part of the list. The list includes weakly bound sequences.
# Biological target: T1, MBP-FoxP3dN (UniProt Q99JB6)
# T1 sequence: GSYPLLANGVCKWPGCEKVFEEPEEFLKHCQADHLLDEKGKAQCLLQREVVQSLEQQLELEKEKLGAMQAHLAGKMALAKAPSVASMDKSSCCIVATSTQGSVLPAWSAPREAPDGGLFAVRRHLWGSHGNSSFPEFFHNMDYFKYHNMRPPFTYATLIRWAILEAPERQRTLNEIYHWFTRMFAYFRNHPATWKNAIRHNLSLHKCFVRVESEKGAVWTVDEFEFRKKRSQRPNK
# Test: PD-seq (MBP pull-down with sequencing)
# Conditions: 20 mM Tris-HCl pH 7.5, 100 mM NaCl, 1.5 mM MgCl2, 0.4 uM protein, 0.1 uM dsDNA library, 30 min, room temperature, amylose pull-down; high values mean tight binding; double strand, one strand shown
row,Sequence,binding signal (RPM ratio (pull-down/input))
1,GATGATTGTTCTCCCAGCTGATGAATTGACGGAATCGAGTAAACAAATTTTCCTAATCTTTCTGTTCAAGCGCCATCTAC,0.235
2,GATGATTGTTCTCCCAGCTGATGAATTGATCAATTCGAGTAAACAAATTTTCCTAATCTTTCTGTTCAAGCGCCATCTAC,0.406
3,GATGATTGTTCTCCCAGCTGATGAATTGTTTTCCTCGAGTAAACAAATTTTCCTAATCTTTCTGTTCAAGCGCCATCTAC,4.78
4,GATGATTGTTCTCCCAGCTGATGAATTGGACATGTCGAGTAAACAAATTTTCCTAATCTTTCTGTTCAAGCGCCATCTAC,0.49
5,GATGATTGTTCTCCCAGCTGATGAATTCAGCCCCTCGAGTAAACAAATTTTCCTAATCTTTCTGTTCAAGCGCCATCTAC,0.978
6,GATGATTGTTCTCCCAGCTGATGAATTACTTTCCTCGAGTAAACAAATTTTCCTAATCTTTCTGTTCAAGCGCCATCTAC,0.377
7,GATGATTGTTCTCCCAGCTGATGAATTACTAGTCTCGAGTAAACAAATTTTCCTAATCTTTCTGTTCAAGCGCCATCTAC,0.398
8,GATGATTGTTCTCCCAGCTGATGAATTGGCGAGTTCGAGTAAACAAATTTTCCTAATCTTTCTGTTCAAGCGCCATCTAC,0.515
9,GATGATTGTTCTCCCAGCTGATGAATTTGTGAACTCGAGTAAACAAATTTTCCTAATCTTTCTGTTCAAGCGCCATCTAC,1.35
10,GATGATTGTTCTCCCAGCTGATGAATTCCCATCCTCGAGTAAACAAATTTTCCTAATCTTTCTGTTCAAGCGCCATCTAC,0.33
11,GATGATTGTTCTCCCAGCTGATGAATTAGACCCGTCGAGTAAACAAATTTTCCTAATCTTTCTGTTCAAGCGCCATCTAC,0.299
12,GATGATTGTTCTCCCAGCTGATGAATTCAGGAAATCGAGTAAACAAATTTTCCTAATCTTTCTGTTCAAGCGCCATCTAC,0.225
13,GATGATTGTTCTCCCAGCTGATGAATTACTGTTCTCGAGTAAACAAATTTTCCTAATCTTTCTGTTCAAGCGCCATCTAC,0.662
14,GATGATTGTTCTCCCAGCTGATGAATTATGGATGTCGAGTAAACAAATTTTCCTAATCTTTCTGTTCAAGCGCCATCTAC,0.621
15,GATGATTGTTCTCCCAGCTGATGAATTGGCCCTGTCGAGTAAACAAATTTTCCTAATCTTTCTGTTCAAGCGCCATCTAC,0.25
16,GATGATTGTTCTCCCAGCTGATGAATTTAAAGGTTCGAGTAAACAAATTTTCCTAATCTTTCTGTTCAAGCGCCATCTAC,0.283
17,GATGATTGTTCTCCCAGCTGATGAATTCTTCTGATCGAGTAAACAAATTTTCCTAATCTTTCTGTTCAAGCGCCATCTAC,0.204
18,GATGATTGTTCTCCCAGCTGATGAATTGTGGATGTCGAGTAAACAAATTTTCCTAATCTTTCTGTTCAAGCGCCATCTAC,0.811
19,GATGATTGTTCTCCCAGCTGATGAATTTAGAGTGTCGAGTAAACAAATTTTCCTAATCTTTCTGTTCAAGCGCCATCTAC,1.26
20,GATGATTGTTCTCCCAGCTGATGAATTACGGAACTCGAGTAAACAAATTTTCCTAATCTTTCTGTTCAAGCGCCATCTAC,0.299
21,GATGATTGTTCTCCCAGCTGATGAATTACTGGGATCGAGTAAACAAATTTTCCTAATCTTTCTGTTCAAGCGCCATCTAC,0.247

row,Sequence,binding signal (RPM ratio (pull-down/input))
1,GATGATTGTTCTCCCAGCTGATGAATTCGCGAGTTCGAGTAAACAAATTTTCCTAATCTTTCTGTTCAAGCGCCATCTAC,0.522
2,GATGATTGTTCTCCCAGCTGATGAATTCCTCCTCTCGAGTAAACAAATTTTCCTAATCTTTCTGTTCAAGCGCCATCTAC,0.235
3,GATGATTGTTCTCCCAGCTGATGAATTCATAGCGTCGAGTAAACAAATTTTCCTAATCTTTCTGTTCAAGCGCCATCTAC,0.723
4,GATGATTGTTCTCCCAGCTGATGAATTAAGCTTTTCGAGTAAACAAATTTTCCTAATCTTTCTGTTCAAGCGCCATCTAC,2.69
5,GATGATTGTTCTCCCAGCTGATGAATTGCGGCCGTCGAGTAAACAAATTTTCCTAATCTTTCTGTTCAAGCGCCATCTAC,0.756
6,GATGATTGTTCTCCCAGCTGATGAATTAGTTCTGTCGAGTAAACAAATTTTCCTAATCTTTCTGTTCAAGCGCCATCTAC,0.398
7,GATGATTGTTCTCCCAGCTGATGAATTTTCTATATCGAGTAAACAAATTTTCCTAATCTTTCTGTTCAAGCGCCATCTAC,0.33
8,GATGATTGTTCTCCCAGCTGATGAATTTTTACAGTCGAGTAAACAAATTTTCCTAATCTTTCTGTTCAAGCGCCATCTAC,0.211
9,GATGATTGTTCTCCCAGCTGATGAATTGATGACTTCGAGTAAACAAATTTTCCTAATCTTTCTGTTCAAGCGCCATCTAC,0.689
10,GATGATTGTTCTCCCAGCTGATGAATTCGCGGAGTCGAGTAAACAAATTTTCCTAATCTTTCTGTTCAAGCGCCATCTAC,0.23
11,GATGATTGTTCTCCCAGCTGATGAATTGCTCCGGTCGAGTAAACAAATTTTCCTAATCTTTCTGTTCAAGCGCCATCTAC,0.297
12,GATGATTGTTCTCCCAGCTGATGAATTAGTGATCTCGAGTAAACAAATTTTCCTAATCTTTCTGTTCAAGCGCCATCTAC,1.85
13,GATGATTGTTCTCCCAGCTGATGAATTTTTATATTCGAGTAAACAAATTTTCCTAATCTTTCTGTTCAAGCGCCATCTAC,0.437
14,GATGATTGTTCTCCCAGCTGATGAATTCTCAGCGTCGAGTAAACAAATTTTCCTAATCTTTCTGTTCAAGCGCCATCTAC,0.353
15,GATGATTGTTCTCCCAGCTGATGAATTATAGGGATCGAGTAAACAAATTTTCCTAATCTTTCTGTTCAAGCGCCATCTAC,0.326
16,GATGATTGTTCTCCCAGCTGATGAATTGAAGCCATCGAGTAAACAAATTTTCCTAATCTTTCTGTTCAAGCGCCATCTAC,0.96
17,GATGATTGTTCTCCCAGCTGATGAATTAGCGTGTTCGAGTAAACAAATTTTCCTAATCTTTCTGTTCAAGCGCCATCTAC,1.39
18,GATGATTGTTCTCCCAGCTGATGAATTTAAGCTCTCGAGTAAACAAATTTTCCTAATCTTTCTGTTCAAGCGCCATCTAC,0.364
19,GATGATTGTTCTCCCAGCTGATGAATTACGGCACTCGAGTAAACAAATTTTCCTAATCTTTCTGTTCAAGCGCCATCTAC,0.554
20,GATGATTGTTCTCCCAGCTGATGAATTCGTCTGTTCGAGTAAACAAATTTTCCTAATCTTTCTGTTCAAGCGCCATCTAC,0.639
21,GATGATTGTTCTCCCAGCTGATGAATTAAGGTGATCGAGTAAACAAATTTTCCTAATCTTTCTGTTCAAGCGCCATCTAC,0.481

row,Sequence,binding signal (RPM ratio (pull-down/input))
1,GATGATTGTTCTCCCAGCTGATGAATTAACGACATCGAGTAAACAAATTTTCCTAATCTTTCTGTTCAAGCGCCATCTAC,0.615
2,GATGATTGTTCTCCCAGCTGATGAATTTTGGCAGTCGAGTAAACAAATTTTCCTAATCTTTCTGTTCAAGCGCCATCTAC,0.443
3,GATGATTGTTCTCCCAGCTGATGAATTGAAATGATCGAGTAAACAAATTTTCCTAATCTTTCTGTTCAAGCGCCATCTAC,0.287
4,GATGATTGTTCTCCCAGCTGATGAATTGGAAGGGTCGAGTAAACAAATTTTCCTAATCTTTCTGTTCAAGCGCCATCTAC,0.225
5,GATGATTGTTCTCCCAGCTGATGAATTTTTCCAATCGAGTAAACAAATTTTCCTAATCTTTCTGTTCAAGCGCCATCTAC,0.304
6,GATGATTGTTCTCCCAGCTGATGAATTATCGGCGTCGAGTAAACAAATTTTCCTAATCTTTCTGTTCAAGCGCCATCTAC,0.48
7,GATGATTGTTCTCCCAGCTGATGAATTAGCGGAATCGAGTAAACAAATTTTCCTAATCTTTCTGTTCAAGCGCCATCTAC,0.214
8,GATGATTGTTCTCCCAGCTGATGAATTAGCTGGTTCGAGTAAACAAATTTTCCTAATCTTTCTGTTCAAGCGCCATCTAC,1.21
9,GATGATTGTTCTCCCAGCTGATGAATTTCGGTACTCGAGTAAACAAATTTTCCTAATCTTTCTGTTCAAGCGCCATCTAC,0.521
10,GATGATTGTTCTCCCAGCTGATGAATTCTTCATTTCGAGTAAACAAATTTTCCTAATCTTTCTGTTCAAGCGCCATCTAC,0.277
11,GATGATTGTTCTCCCAGCTGATGAATTAGCCGGGTCGAGTAAACAAATTTTCCTAATCTTTCTGTTCAAGCGCCATCTAC,0.179
12,GATGATTGTTCTCCCAGCTGATGAATTCGTTGCGTCGAGTAAACAAATTTTCCTAATCTTTCTGTTCAAGCGCCATCTAC,2.16
13,GATGATTGTTCTCCCAGCTGATGAATTTCTCATGTCGAGTAAACAAATTTTCCTAATCTTTCTGTTCAAGCGCCATCTAC,0.32
14,GATGATTGTTCTCCCAGCTGATGAATTTAAATCATCGAGTAAACAAATTTTCCTAATCTTTCTGTTCAAGCGCCATCTAC,0.449
15,GATGATTGTTCTCCCAGCTGATGAATTATTCAGGTCGAGTAAACAAATTTTCCTAATCTTTCTGTTCAAGCGCCATCTAC,0.225
16,GATGATTGTTCTCCCAGCTGATGAATTCTTCTAGTCGAGTAAACAAATTTTCCTAATCTTTCTGTTCAAGCGCCATCTAC,0.198
17,GATGATTGTTCTCCCAGCTGATGAATTTCGACGATCGAGTAAACAAATTTTCCTAATCTTTCTGTTCAAGCGCCATCTAC,0.311
18,GATGATTGTTCTCCCAGCTGATGAATTACCACTTTCGAGTAAACAAATTTTCCTAATCTTTCTGTTCAAGCGCCATCTAC,0.439
19,GATGATTGTTCTCCCAGCTGATGAATTAATGACGTCGAGTAAACAAATTTTCCTAATCTTTCTGTTCAAGCGCCATCTAC,0.44
20,GATGATTGTTCTCCCAGCTGATGAATTGTTCTATTCGAGTAAACAAATTTTCCTAATCTTTCTGTTCAAGCGCCATCTAC,0.463
21,GATGATTGTTCTCCCAGCTGATGAATTGGACAAATCGAGTAAACAAATTTTCCTAATCTTTCTGTTCAAGCGCCATCTAC,0.229
